Molecules are shown by their SMILES. Hit rate of the full screen: of about 310,000 compounds, about 2,200 (0.71%) showed an effect of 50% or more. Effects have a minus sign here. This is one part of the list.

The assay deals with human ether-à-go-go-related gene (hERG) potassium channel (human, UniProt Q12809). The assay is described as follows: primary screen, population patch clamp on CHO cells stably expressing hERG.
human ether-à-go-go-related gene (hERG) potassium channel, sequence (Q12809 whole entry, looked up): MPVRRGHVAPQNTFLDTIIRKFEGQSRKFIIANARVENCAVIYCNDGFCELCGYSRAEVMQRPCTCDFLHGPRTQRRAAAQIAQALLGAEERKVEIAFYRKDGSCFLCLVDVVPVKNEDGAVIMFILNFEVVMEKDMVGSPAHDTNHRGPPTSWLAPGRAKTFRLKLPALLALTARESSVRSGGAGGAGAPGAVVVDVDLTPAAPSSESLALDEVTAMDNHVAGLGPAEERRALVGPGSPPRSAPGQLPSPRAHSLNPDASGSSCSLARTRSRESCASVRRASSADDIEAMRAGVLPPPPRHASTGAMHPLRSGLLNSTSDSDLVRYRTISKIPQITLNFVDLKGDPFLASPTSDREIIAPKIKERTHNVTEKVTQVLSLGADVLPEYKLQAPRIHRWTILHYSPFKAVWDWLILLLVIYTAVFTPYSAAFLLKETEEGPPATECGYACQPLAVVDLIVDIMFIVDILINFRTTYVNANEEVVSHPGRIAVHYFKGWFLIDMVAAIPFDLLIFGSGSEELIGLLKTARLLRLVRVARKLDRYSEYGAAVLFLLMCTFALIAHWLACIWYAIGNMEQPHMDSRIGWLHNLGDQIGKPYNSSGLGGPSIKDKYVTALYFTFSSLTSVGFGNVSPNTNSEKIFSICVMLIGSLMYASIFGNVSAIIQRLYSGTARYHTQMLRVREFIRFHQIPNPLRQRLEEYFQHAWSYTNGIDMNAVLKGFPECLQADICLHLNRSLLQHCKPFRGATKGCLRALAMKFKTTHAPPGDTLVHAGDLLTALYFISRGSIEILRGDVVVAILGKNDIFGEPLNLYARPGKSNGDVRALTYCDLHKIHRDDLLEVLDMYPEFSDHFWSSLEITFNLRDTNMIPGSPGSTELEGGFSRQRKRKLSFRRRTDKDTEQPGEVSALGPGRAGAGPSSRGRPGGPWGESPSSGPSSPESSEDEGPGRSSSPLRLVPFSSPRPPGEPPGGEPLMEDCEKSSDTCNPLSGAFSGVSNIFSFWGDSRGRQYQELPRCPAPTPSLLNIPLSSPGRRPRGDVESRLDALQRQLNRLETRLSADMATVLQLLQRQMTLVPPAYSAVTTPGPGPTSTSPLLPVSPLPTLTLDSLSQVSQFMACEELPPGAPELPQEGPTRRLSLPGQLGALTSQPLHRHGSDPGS
With `O=C(C[n+]1cc(-c2ccccc2)n2c1CCCCC2)c1ccc(Br)cc1.[Br-]`, the “hERG current change (%, negative = inhibition) at 1uM” value was -6.56%.

Consider `Cn1c(N)c(S(=O)(=O)NCc2ccccc2Cl)c(=O)n(C)c1=O`, for which the “hERG current change (%, negative = inhibition) at 1uM” value is given as -0.821%. Take `Cc1c(NC(=O)c2cccc(NC(=O)Cc3c(F)cccc3Cl)c2)c(=O)n(-c2ccccc2)n1C`: the “hERG current change (%, negative = inhibition) at 1uM” value was determined as 4.85%.

For `Cc1ccc(C2(C(F)(F)F)NC(=O)N3CCCN=C3S2)cc1` (centres unmarked), the “hERG current change (%, negative = inhibition) at 1uM” value amounted to 22.8%. As for `COc1ccccc1-c1ccc(SCc2cccc(F)c2)nn1`, the figure is 3.52%. As for `CCN(CC)CCN1C(=O)C(=O)/C(=C(/O)c2c(C)[nH]c(C(=O)OC)c2C)C1c1ccc(C)o1` (centres unmarked), the figure is 12.6%; as for `c1ccc(CCNc2nc(-c3ccncc3)nc3ccccc23)cc1`, 7.94%; as for `COc1ccc(-c2nn(-c3ccccc3)cc2CNC(=O)c2cccc([N+](=O)[O-])c2)cc1`, 14.6%. As to `COc1ccccc1CNC(=O)COC(=O)c1nccnc1N`, the “hERG current change (%, negative = inhibition) at 1uM” value came out at 17.8%. Under `COc1ccc2c(c1)nc(SCC(O)c1ccccc1)n2C` (centres unmarked) stands -2.85%.

Turning to `COc1ccc(COC(=O)N/N=C(\C)CC(=O)Nc2ccc(Cl)cc2)cc1`, the “hERG current change (%, negative = inhibition) at 1uM” value is recorded as -9.18%. Under `Cn1c(C(=O)NC2CCCCC2)cc2sccc21` stands -2.26%.

With `O=C(Nc1ccc(C(=O)O)cc1)/C(=C\c1cccc([N+](=O)[O-])c1)NC(=O)c1ccc(Br)o1`, the “hERG current change (%, negative = inhibition) at 1uM” value is 14.3%. Under `CN(C)/N=C/c1ccc(Sc2ccc([N+](=O)[O-])cc2[N+](=O)[O-])o1` stands 13.4%; under `CCN(CC)C(=O)C(=O)c1cccn1-c1c(Cl)cccc1C#N`, 9.45%. Under `CN1CCN(C(=O)/C=C/c2c(F)cccc2Cl)CC1` stands 8.16%; under `CN1CCN(Cc2nc3ccccc3c(=O)n2Cc2nc(-c3ccc([N+](=O)[O-])cc3)cs2)CC1`, -45.8%.

On to `O=C(CSc1nc2ccccc2c(=O)n1-c1ccccc1F)NC1CCS(=O)(=O)C1` (centres unmarked), for which the “hERG current change (%, negative = inhibition) at 1uM” value is on record as -28.6%. Under `CCOC(=O)N/N=C/c1cn(Cc2ccc(F)cc2)c2ccccc12` stands 12.5%. As for `CCC(Sc1nc2ccncc2[nH]1)C(=O)Nc1ccc(C)c(Cl)c1` (centres unmarked), the figure is 4.57%; as for `CN(Cc1ccc(F)cc1)C(=O)c1sccc1-c1ccccc1`, 10%; as for `Cc1cc(C)n(C(=O)C23CC4CC(CC(C4)C2)C3)n1`, 15.4%. Regarding `CCCCc1cc2c(cc1NC(=O)CN1CCCCC1)OCCO2.Cl`, the “hERG current change (%, negative = inhibition) at 1uM” value was 10.1%. Under `Oc1ccc(CN2CCN(c3ccccc3)CC2)c2cccnc12` stands 12.4%.

Regarding `Cc1ccc(-c2nn(-c3ccccc3)cc2CO)o1`, the “hERG current change (%, negative = inhibition) at 1uM” value came to 10.3%. In the case of `CC1C(C#N)=C(N)OC2=C1C(=O)CC(c1ccccc1)C2` (centres unmarked), the “hERG current change (%, negative = inhibition) at 1uM” value stood at 8.16%. Under `CC(C)OCCCNC(=O)C(NC(=O)c1ccc(Cl)cc1)C(C)C` (centres unmarked) stands 3.29%; under `Cc1c(N=C2SCC(=O)N2/N=C/c2ccccc2)c(=O)n(-c2ccccc2)n1C`, -0.892%; under `Cc1cc(NC(=O)CSc2nnc(-c3ccccc3F)n2C)no1`, 8.69%. In the case of `Cc1cc(=O)[nH]c2nnc(SCC(=O)N3CC(C)OC(C)C3)n12` (centres unmarked), the “hERG current change (%, negative = inhibition) at 1uM” value is on record as 11.3%. With `Cc1cc(C)nc(NS(=O)(=O)c2ccc(N/C=C\C(=O)c3ccc(Cl)cc3)cc2)n1`, the “hERG current change (%, negative = inhibition) at 1uM” value came out at 2.76%.

On to `CC1=C(N2CCOCC2)CCC1=O`, for which the “hERG current change (%, negative = inhibition) at 1uM” value is on record as 13.7%. As for `Cc1cc(C)c(C)c(OCC(O)CN2CCN(c3ccccn3)CC2)c1.Cl` (centres unmarked), the figure is -6.06%; as for `COc1ccccc1/C=C1/SC(=S)N(C(C)C(=O)NC2C=CS(=O)(=O)C2)C1=O` (centres unmarked), 13%. Under `COC(=O)C1=C(C)NC(C)=C(C(=O)OC)C1c1cc2cc(C)ccc2[nH]c1=O` stands 10.1%; under `C=CCOc1c(Br)cc(CNc2ccc(NC(=O)C(C)C)cc2)cc1OCC`, 4.09%.

For the compound `CCCc1nc2n[nH]c(N)c2c2c1COC(C)(C)C2`, the “hERG current change (%, negative = inhibition) at 1uM” value is listed as -9.95%.

Regarding `CCOC(=O)C1=C(C)Nc2nc3ccccc3n2C1c1ccncc1` (centres unmarked), the “hERG current change (%, negative = inhibition) at 1uM” value was 8.17%. As for `COc1ccc(Oc2coc3cc(OC(=O)/C=C/c4ccccc4)ccc3c2=O)cc1`, the figure is 0.507%. Under `N#Cc1ccccc1OCC(=O)N1CCc2ccccc2C1` stands 5.41%; under `Cc1cccc(C(=O)Nc2sc(C(=O)N3CCCC3)c(C)c2C#N)c1`, 13.8%. Under `Cc1cc(C)nc(-n2c(C)nc3cc(Cl)ccc3c2=O)c1` stands 15.2%; under `CC1C(=O)Nc2ccc(S(=O)(=O)NCCc3ccc(Cl)cc3)cc2NC1=O` (centres unmarked), 14.3%; under `CCCn1c(/C=C/c2ccco2)nc2ccccc21`, 14.2%.

The values are drawn from publication PMC4336329 (PLoS ONE, 2015).
